We go through 109 sequences from paper PMC6212790.

The other results are listed elsewhere or left out. At the low end of the ranking the order means little.

This experiment addresses T1, GST-Rok-C97-191 (UniProt O34857).
T1 sequence: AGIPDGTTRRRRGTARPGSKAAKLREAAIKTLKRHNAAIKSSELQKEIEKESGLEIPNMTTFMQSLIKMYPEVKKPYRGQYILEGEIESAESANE
Nature of the experiment: protein binding microarray.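 Note: rank score from −0.5 (least bound) to 0.5 (best bound).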 Conditions: Rok is a gene silencer of Bacillus subtilis; high values mean tight binding; most listed sequences are background and not binding sites; double strand, one strand shown.
The sequence CGTGCTGA registered a binding signal of -0.198 E-score. The figure for AGTCTTGA is -0.051 E-score.

Regarding CAAGTCGG, the binding signal amounted to 0.0501 E-score. Next, AGGGCCTG: -0.369 E-score; TCCCATAA: -0.0486 E-score; ACCTGCCC: -0.288 E-score.

CTCCATCA: the binding signal is -0.0795 E-score.

Sequence CGCTACAG displayed a binding signal of 0.0451 E-score. The figure for GTAGGTGA is 0.139 E-score; for CCGACAGA it is -0.0286 E-score. Next, GACATATA: 0.307 E-score; CCTTAAGG: -0.136 E-score. The figure for ACGGCCAT is -0.0791 E-score; for ACATCGCT it is -0.158 E-score. In turn, ATTAGGAC returned a binding signal of 0.107 E-score. Next, AGGAATAA: 0.115 E-score; ACACTCCT: -0.18 E-score; CATCGCTA: 0.00374 E-score. The figure for GTAGTGCA is 0.015 E-score; for GCTTTTCC it is 0.00274 E-score. Next, CGTATAGA: 0.1 E-score; AAGTAAAC: 0.116 E-score; GTGCGTGA: 0.104 E-score.

With CTTTGACA, the binding signal is -0.0598 E-score.

As to ATTATCAC, the binding signal came out at 0.173 E-score. The figure for GACAAGAA is -0.168 E-score; for CGAAAGTA it is 0.203 E-score; for CATCTCGA it is -0.0346 E-score. The figure for AGTTCTGG is -0.02 E-score; for AGGCCACG it is -0.247 E-score. Next, AAAAGAGG: -0.0599 E-score; GACTGCAC: -0.239 E-score. Sequence CAAAAGCC had a binding signal of -0.0199 E-score. The figure for GCTCACTA is 0.0154 E-score; for AAGCGGCC it is -0.2 E-score; for AAACCGTA it is -0.119 E-score. As for CATTCCCG, the binding signal was -0.0412 E-score.

For the sequence CGCAAACA, the binding signal is -0.0194 E-score. The figure for ACAATGAT is 0.143 E-score; for GTTGACGA it is -0.0987 E-score.

Turning to ACATATCT, the binding signal came to 0.162 E-score.

AGAAAGCG yielded a binding signal of 0.104 E-score. Next, CCAATAAG: 0.0325 E-score; CGTCGGAC: -0.0828 E-score.

ATCTTAGG yielded a binding signal of -0.016 E-score. The figure for CGCAGAGC is -0.17 E-score; for TCATTAGA it is 0.116 E-score; for ACCTTCCT it is -0.142 E-score. Consider ACGTAGAC, for which the binding signal came out at 0.0154 E-score. Next, GAAGCACC: -0.322 E-score; ATCCTCGA: -0.156 E-score; AGTTCACG: 0.0934 E-score. Next, AGGGTTAC: -0.183 E-score.

Sequence CACACTAA displayed a binding signal of 0.175 E-score. The figure for CCAAGCCA is -0.148 E-score; for AACTGATT it is 0.0123 E-score; for CAGGCCAC it is -0.131 E-score.

Consider AATACCAG, for which the binding signal was 0.0214 E-score. The figure for CCACGCCA is -0.234 E-score; for GAGGCGTA it is -0.0228 E-score; for GGAGGTGA it is -0.229 E-score. Next, CAACGCTG: 0.0441 E-score; CCATTACG: 0.176 E-score.

The sequence GGGTCGAA yielded a binding signal of -0.192 E-score. The figure for CCTGATAG is 0.000217 E-score; for CGCTATAA it is 0.114 E-score.

GTTGCCAA displayed a binding signal of -0.0231 E-score. CGTAGGGC gave a binding signal of -0.278 E-score. Next, GAAATAGC: 0.128 E-score.

For the sequence AAGCGGGA, the binding signal is -0.209 E-score. AACGAGTT yielded a binding signal of 0.137 E-score. The figure for ATGCTAAG is 0.055 E-score. Next, GCCTACGA: -0.0187 E-score. Next, ATACCGGG: 0.267 E-score; ACAGGTTG: -0.118 E-score. For the sequence AGGGGCTA, the binding signal was -0.2 E-score. The figure for TCGAAGAA is -0.18 E-score; for AACCAACG it is -0.0749 E-score; for CCGCTGCG it is -0.244 E-score. Regarding GAGTTGAC, the binding signal was determined as 0.0426 E-score.

The sequence CATTACGA gave a binding signal of 0.0599 E-score. Next, CTGGGAGC: -0.253 E-score; GTGAGGCA: -0.0498 E-score; CGGACTCA: -0.063 E-score. The figure for GCTCCGGA is -0.172 E-score. ACCACGCA had a binding signal of -0.145 E-score. As for AGGTGTCG, the binding signal is -0.132 E-score.

The sequence AAAGCGGT gave a binding signal of 0.0205 E-score.

For CACTCGAG, the binding signal was -0.131 E-score.

AAAGTGAA had a binding signal of -0.108 E-score. The figure for ACCTGGGA is -0.213 E-score. The figure for AGGGAGAC is -0.336 E-score; for CCGTAGGC it is -0.0487 E-score; for CCGCGTGA it is -0.00819 E-score. The figure for ACTTTGCT is -0.0196 E-score; for AGCACCAG it is -0.102 E-score; for AAATGAAG it is 0.0181 E-score. CGGTGGGC registered a binding signal of -0.218 E-score.

On to AATTCCTG, for which the binding signal stood at 0.0778 E-score. The figure for ACGGAAAA is 0.216 E-score; for CTCCGTGA it is -0.0664 E-score. GATGCAGA returned a binding signal of -0.0198 E-score. The figure for ATCGGATC is 0.18 E-score; for ATCAATTG it is 0.106 E-score; for TGAGCGCA it is -0.134 E-score.

On to CAAACTTG, for which the binding signal stood at 0.147 E-score. Next, ACTGCTAA: 0.133 E-score; AGTAGTTA: 0.424 E-score. Next, CTACTTCA: 0.207 E-score.
